Reference: the supplement of paper PMC11417369
This is one part of the list.

The sequences below were run on PfSIP2 AP2 domain 1 (GST-tagged) (assay: gcPBM binding intensity (ln(normalized median fluorescence intensity)); higher = stronger DNA binding).
Summary of the method: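 After 1 h on an Agilent 4 × 180k array of primer-extended double-stranded 36-bp intergenic genomic probes and negative controls, bound GST-tagged P. falciparum DNA-binding domains were detected with Alexa488 anti-GST antibody and scanned at 488 nm. The domains had been expressed in E. coli, and binding took place in 1× PBS with 1% milk, 0.2 mg/ml BSA, 0.5% salmon testes DNA and 0.03% Triton X-100. Binding intensity is the highest Masliner-normalised natural-log median intensity across replicate spots of either probe orientation.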

Sequence | gcPBM binding intensity (ln)
TTTCTTATTTTGGATTGTACGTATATTTTTCATTTT [XGTACX_site224] | 7.07
TTACACATGAGAAAATGTACATATAATAAAATATGT [XGTACX_site904] | 6.96
TTATATTTCAATCATATTGTCACAAGTCATATTTAT [GTGCAC_negctrl_site366] | 6.8
ATGGACAAGTTAAACGCACACAAATATATACACCCA [CACACA_site8478] | 7.14
AATAAAAAAAATAGCATACACACATATATACATATA [CACACA_site659] | 6.97
AACAAAAAAAAAAAAAAAAAAAAAAAAAAAAAAATG [CACACA_negctrl_site1127] | 7.01
TATATATATATGTGCGTGCACGTTACCTTGCTGTTT | 9.48
TTTCCAAATACAACTACACACAAACAAAAGTTATAT [CACACA_site6544] | 7.06
AAATTTAACAACTTCAAACACACAATATATATATAT [CACACA_site2092] | 8.91
ATGAATACAAAATTATACAAAATTATCAAAAGTATG [CACACA_negctrl_site1453] | 6.82
TGCAGTCTGGAGAAACGTACATAGTATCTGGTAGCT [XGTACX_site4937] | 6.77
ATACATAAATATATATGTACATATATATATATATAT [XGTACX_site1055] | 9.29
AAAATATATTTAAATTGTACACGTTACCATAACAAT [XGTACX_site2598] | 6.95
CTTTTTATTTAGAACACACACAAAAAAAAAAAAAAA [CACACA_site1761] | 7.04
ATATATTAATAATTTTGTACGCATTTCCTTTTTATT [XGTACX_site1638] | 7.26
GAAAATATTTCCGTATGTACTTATTTTAGTCTACTA [XGTACX_site471] | 7.09
AAAAAAAAAAAAAAATGTACAAATAAAGAAATATGA [XGTACX_site4371] | 7.31
AATATTTTCTTGTACGCATGCACATCCAAATTATAT [TGCATGCA_site873] | 7.46
TGACCTGTTCAGGTAACACACATATAAACACATACA [CACACA_site4186] | 7.03
AGGTTCTTTTTAAATGGTACACATAATTTGAAGATA [XGTACX_site400] | 7.22
GTGTATAGAATGGTTTCTTTTAAGGTTTTTATTTTT [CACACA_negctrl_site564] | 7.24
TCTTAAAAGGGGAATGGAATGGAGAAAATGAAATAA [GTGCAC_negctrl_site30] | 6.96

Sequence | gcPBM binding intensity (ln)
ATACCCACTTAAAATACACACACACCGAAAAAAAAA [CACACA_site8867] | 7.35
ATGGCATAAATATATGCACACACAAAAAAAAAAAAA [CACACA_site7902] | 7.06
TTTCTTTTTTTTTGAAGTACATAAAAATATAAAAAA [XGTACX_site311] | 7.22
ATATATATATGTATGTATATATATATATATATGTTT [CACACA_negctrl_site248] | 9.26
AATATTATAAAATATTGTACTTAAAAAATTATTAAA [XGTACX_site2469] | 6.7
TAAATTTTTTCTTTTTGTACATATTTTAAAAATGTT [XGTACX_site7526] | 6.9
AAAAAGAAAAAGAGCACACAAAAATATTTAACCTTT [CACACA_site2747] | 6.62
GTTATATATGATGGAAGCACTTGGAAGAGGGAAATA [CACACA_negctrl_site1831] | 7.26
GATAAATATTTAATATGTACATATATTATATATATA [XGTACX_site117] | 8.02
AAAAATAAAAAAATAAAAAATAAAAAAATAAAAAAT [CACACA_negctrl_site1425] | 6.79
TATATACACACCGTGTGTACATATACATTAACTGAA [XGTACX_site7120] | 6.98
ATTAAAGTTATAAATTCACACATGTAAATGTATTTA [CACACA_site5279] | 6.81
ATATATTATATATGCGCACACACGAATTTTTTTTTT [CACACA_site2393] | 7.97
TACACTAATGACAGTTGTACTTTTATTCGATAGAAT [XGTACX_site738] | 7.05
TATATATATATAATATGTACATATATACATGCCTTG [XGTACX_site2791] | 8.88
ACTTTTTTTTTGTGTGTGCACTCGATTATATACATA [GTGCAC_site9846] | 10.3
TCGAAAATGACGAATGGTACAGTATGTATAAAAATA [XGTACX_site1258] | 7.05
TATATATACATACGTACACACAAATATTAAAATATA [CACACA_site1951] | 7.41
TCAAAATTGCTTTGTTGTACTAATAAAATTTATTAC [XGTACX_site1121] | 6.99
TATCTGTAAACATATTCACACACATAAATTCGCATA [CACACA_site8557] | 7.01
TCAAAAGAAATAAAAACATGCATAAAAGTAAAAATA [TGCATGCA_site832] | 7.06
TGTTTTTCATAGTGCACACATAACCAAAAATAGTAT [CACACA_site3150] | 10.8
